# Structures can show the parent of a compound that is named as a salt. ± gives the standard deviation of the averaged measurements. The full ranking holds about 1,900 compounds; the median of “normalised cell viability (NPI; 0 = phenylarsine oxide control, 1 = DMSO control)” is about 1, and the lowest 2% start at about 0.039. The list shows a part of the results.
# Tested on: NCI-H1944
# Experiment: normalised cell viability (NPI; 0 = phenylarsine oxide control, 1 = DMSO control) (fraction of DMSO control); NCI-H1944 is a non-small cell lung cancer line; higher = more viable cells (less compound toxicity)
# Conditions: 6 days
# [1] = glucocorticoid arm: hydrocortisone 2.75 uM co-treatment, compound 1 µM
# [2] = glucocorticoid arm: hydrocortisone 2.75 uM co-treatment, compound 5 µM
# [3] = glucocorticoid arm: hydrocortisone 2.75 uM pre-treated 2 days and continued, compound 1 µM
# [4] = glucocorticoid arm: hydrocortisone 2.75 uM pre-treated 2 days and continued, compound 5 µM
# [5] = glucocorticoid arm: vehicle, compound 1 µM
# [6] = glucocorticoid arm: vehicle, compound 5 µM
# 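Further: CTB read-out in 384-well plates, mean of triplicate wells, normalised per plate against 1 µM phenylarsine oxide and 0.1% DMSO, compounds added 24 h after seeding.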
structure (smiles),measurement,setting,value
CN(C)CCOc1ccc(/C(=C(/CCCl)c2ccccc2)c2ccccc2)cc1 [Toremifene Citrate],normalised cell viability,[1],0.9127 ± 0.004
same,normalised cell viability,[2],0.794 ± 0.022
same,normalised cell viability,[3],0.954 ± 0.022
same,normalised cell viability,[4],0.877 ± 0.036
same,normalised cell viability,[5],0.963 ± 0.011
same,normalised cell viability,[6],0.983 ± 0.007
CCCC(CCC)C(=O)NO [Valproic acid hydroxamate],normalised cell viability,[1],1 ± 0.022
same,normalised cell viability,[2],1.01 ± 0.022
same,normalised cell viability,[3],1.01 ± 0.016
same,normalised cell viability,[4],1.02 ± 0.016
same,normalised cell viability,[5],0.9982 ± 0.0077
same,normalised cell viability,[6],0.9988 ± 0.0092
"CCCn1c(=O)c2c(ncn2C)n(CCC)c1=O [1,3-Dipropyl-7-methylxanthine]",normalised cell viability,[1],1.01 ± 0.013
same,normalised cell viability,[2],0.999 ± 0.011
same,normalised cell viability,[3],0.998 ± 0.011
same,normalised cell viability,[4],0.998 ± 0.02
same,normalised cell viability,[5],0.9897 ± 0.0038
same,normalised cell viability,[6],0.9923 ± 0.005
C[C@H]1C[C@H]2[C@@H]3CCC4=CC(=O)C=C[C@]4(C)[C@@]3(F)[C@@H](O)C[C@]2(C)[C@@]1(O)C(=O)CO [Betamethasone],normalised cell viability,[1],0.987 ± 0.02
same,normalised cell viability,[2],0.981 ± 0.016
same,normalised cell viability,[3],0.998 ± 0.01
same,normalised cell viability,[4],1.03 ± 0.014
same,normalised cell viability,[5],0.831 ± 0.01
same,normalised cell viability,[6],0.818 ± 0.025
"Nc1ncnc2c1ncn2[C@@H]1O[C@H](COP(=O)(O)CP(=O)(O)OP(=O)([O-])O)[C@@H](O)[C@H]1O.[Li+] [alpha,beta-Methylene adenosine 5'-triphosphate lithium salt]",normalised cell viability,[1],1.02 ± 0.011
same,normalised cell viability,[2],1 ± 0.036
same,normalised cell viability,[3],1.01 ± 0.014
same,normalised cell viability,[4],0.992 ± 0.013
same,normalised cell viability,[5],1.005 ± 0.0081
same,normalised cell viability,[6],1.02 ± 0.021
CNC(=O)c1cc(COc2nnc(Nc3ccc(Cl)cc3)c3ccoc23)ccn1 [Telatinib (BAY 57-9352)],normalised cell viability,[1],0.9903 ± 0.0035
same,normalised cell viability,[2],0.983 ± 0.041
same,normalised cell viability,[3],0.978 ± 0.013
same,normalised cell viability,[4],0.978 ± 0.022
same,normalised cell viability,[5],1.002 ± 0.0072
same,normalised cell viability,[6],0.979 ± 0.011
COc1cc2nccc(Oc3ccc(NC(=O)C4(C(=O)Nc5ccc(F)cc5)CC4)cc3)c2cc1OC [XL184; Cabozantinib],normalised cell viability,[1],0.9953 ± 0.0045
same,normalised cell viability,[2],0.6313 ± 0.0025
same,normalised cell viability,[3],0.996 ± 0.016
same,normalised cell viability,[4],0.71 ± 0.017
same,normalised cell viability,[5],1.01 ± 0.01
same,normalised cell viability,[6],0.884 ± 0.019
COc1cc2nccc(Oc3ccc(NC(=O)C4(C(=O)Nc5ccc(F)cc5)CC4)cc3)c2cc1OC [Cabozantinib malate (XL184)],normalised cell viability,[1],0.974 ± 0.0076
same,normalised cell viability,[2],0.558 ± 0.033
same,normalised cell viability,[3],0.98 ± 0.013
same,normalised cell viability,[4],0.583 ± 0.0076
same,normalised cell viability,[5],1.013 ± 0.0058
same,normalised cell viability,[6],0.869 ± 0.016
COc1cc2nccc(Oc3ccc(NC(=O)C4(C(=O)Nc5ccc(F)cc5)CC4)cc3)c2cc1OC [XL-184 free base (Cabozantinib)],normalised cell viability,[1],0.9763 ± 0.0032
same,normalised cell viability,[2],1.02 ± 0.02
same,normalised cell viability,[3],0.998 ± 0.021
same,normalised cell viability,[4],1.03 ± 0.011
same,normalised cell viability,[5],0.9957 ± 0.0029
same,normalised cell viability,[6],1.007 ± 0.0058
CN1CCN(c2nc3cc(C(F)(F)F)ccc3n3cccc23)CC1,normalised cell viability,[1],0.99 ± 0.0089
same,normalised cell viability,[2],0.983 ± 0.0066
same,normalised cell viability,[3],1 ± 0.024
same,normalised cell viability,[4],1.04 ± 0.015
same,normalised cell viability,[5],0.983 ± 0.0053
same,normalised cell viability,[6],0.9807 ± 0.0025
COCCOC(=O)C1=C(C)NC(C)=C(C(=O)OC/C=C/c2ccccc2)C1c1cccc([N+](=O)[O-])c1 (stereo unspecified) [Cilnidipine],normalised cell viability,[1],0.985 ± 0.02
same,normalised cell viability,[2],0.926 ± 0.018
same,normalised cell viability,[3],0.9927 ± 0.0081
same,normalised cell viability,[4],1.01 ± 0.02
same,normalised cell viability,[5],0.973 ± 0.001
same,normalised cell viability,[6],0.996 ± 0.001
Cc1cc([C@@H](C)Nc2ccccc2C(=O)O)c2nc(N3CCOCC3)cc(=O)n2c1,normalised cell viability,[1],0.878 ± 0.043
same,normalised cell viability,[2],0.764 ± 0.062
same,normalised cell viability,[3],0.879 ± 0.023
same,normalised cell viability,[4],0.791 ± 0.03
same,normalised cell viability,[5],0.9667 ± 0.0091
same,normalised cell viability,[6],0.899 ± 0.035
CCn1nc(C(=O)O)c(=O)c2cc3c(cc21)OCO3 [Cinoxacin],normalised cell viability,[1],1.003 ± 0.0058
same,normalised cell viability,[2],1.017 ± 0.0058
same,normalised cell viability,[3],1.017 ± 0.0058
same,normalised cell viability,[4],1.003 ± 0.0099
same,normalised cell viability,[5],1 ± 0.012
same,normalised cell viability,[6],1.01 ± 0.011
N=C(N)SCCc1c[nH]cn1 [Imetit dihydrobromide],normalised cell viability,[1],0.992 ± 0.0036
same,normalised cell viability,[2],0.989 ± 0.027
same,normalised cell viability,[3],0.994 ± 0.0044
same,normalised cell viability,[4],1.01 ± 0.093
same,normalised cell viability,[5],0.9897 ± 0.0068
same,normalised cell viability,[6],1 ± 0.0089
Cc1cnc(NC(=O)C2=C(O)c3ccccc3S(=O)(=O)N2C)s1 [Meloxicam sodium],normalised cell viability,[1],1.01
same,normalised cell viability,[2],0.999 ± 0.032
same,normalised cell viability,[3],1.01 ± 0.018
same,normalised cell viability,[4],1.01 ± 0.042
same,normalised cell viability,[5],1.013 ± 0.0058
same,normalised cell viability,[6],1.023 ± 0.0058
CC(C)NCC(O)COc1ccc(CC(N)=O)cc1 (racemic) [(±)-Atenolol],normalised cell viability,[1],0.987 ± 0.007
same,normalised cell viability,[2],1.001 ± 0.0085
same,normalised cell viability,[3],1.003 ± 0.0064
same,normalised cell viability,[4],1.02 ± 0.021
same,normalised cell viability,[5],1.005 ± 0.0092
same,normalised cell viability,[6],1.01
